# Where “and” joins values, the source holds several entries; their conditions need not be identical. Equal values may be shown once. Where a name gives a salt, the structure may show the parent alone.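 Five compound concentrations were applied to cells in 96-well plates for 48 hours; endpoints were derived by simple linear interpolation of the resulting dose-response curve. GI50 = concentration required for 50% inhibition of growth.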 Calls of active or inactive are those of the source. Cut-off read from the data, not from the text of the source: active = GI50 up to about 1.1 µM and inactive = higher. Peptide text beside a SMILES is read from it.
# Test system: NCI-H322M
# Assay: inhibition of tumour cell growth, NCI panel, 48 h
row,SMILES,GI50
1,COc1ccc(-c2cc(=O)c3c(OC)c(OC)c(OC)c(OC)c3o2)cc1OC [NOBILETIN],inactive: 39.1 µM
2,COC(=O)Nc1nc2cc(C(=O)c3cccs3)ccc2[nH]1 [NOCODAZOLE],active: 0.0234 µM
3,CNCCC=C1c2ccccc2CCc2ccccc21 [NORTRIPTYLINE HYDROCHLORIDE],inactive: 14.7 µM
4,CO[C@@H]1[C@H](OC(=O)NC(=O)CCl)CC[C@]2(CO2)[C@H]1[C@@]1(C)O[C@@H]1CC=C(C)C [O-CHLOROACETYLCARBAMOYLFUMAGILLOL],inactive: 14.5 µM
5,C=C1C(=O)O[C@@H]2C[C@]3(C)CC[C@]4(C)[C@H](CC[C@@H]5[C@@]6(C)CCC(=O)C(C)(C)[C@@H]6CC[C@]54C)[C@H]3[C@H]12 [OCHRACEOLIDE A],inactive: 24.2 µM
6,CCCCCCCCCCCCCCCCCCOP(=O)([O-])OCC[N+](C)(C)C [OCTADECYLPHOSPHONOCHOLINE],active: 0.989 µM
7,O=C(O)CN(CC(=O)O)Cc1cc2c(cc1O)Oc1cc(O)c(CN(CC(=O)O)CC(=O)O)cc1C21OC(=O)c2ccccc21 [OFTASCEINE],inactive: > 100 µM
8,Cn1cnc2c(NCc3ccccc3)nc(NCCO)nc21 [OLOMOUCINE],inactive: 76.4 µM
9,Cc1c(-c2cnccn2)ssc1=S [OLTIPRAZ],inactive: > 71.9 µM
10,CC(C)=CCc1c(O)ccc2ccc(=O)oc12 [OSTHENOL],inactive: > 92 µM
11,O=C(O)CCc1nc(-c2ccccc2)c(-c2ccccc2)o1 [OXAPROZIN],inactive: > 100 µM
12,NCCc1cc(O)c(O)cc1O [OXIDOPAMINE HYDROCHLORIDE],inactive: 58.9 µM
13,Cc1ccc(S(N)(=O)=O)cc1 [P-TOLUENESULFONAMIDE],inactive: > 1000 µM
14,COc1cc2c(cc1OC)-c1cc3ccc(OC)c(OC)c3c[n+]1CC2 [PALMATINE CHLORIDE],inactive: > 100 µM
15,O=C(O)c1cc2ccccc2c(Cc2c(O)c(C(=O)O)cc3ccccc23)c1O [PAMOIC ACID],inactive: > 100 µM
16,O=C1N[C@H]2[C@H](O)[C@H](O)[C@@H](O)[C@H](O)[C@@H]2c2cc3c(c(O)c21)OCO3 [PANCRATISTATIN],active: 0.0384 µM
17,COc1cc(C)c(CC/C(C)=C/Cc2cc(O)ccc2O)c(C)c1C [PANICEIN A HYDROQUINONE],inactive: > 25 µM
18,C/C(=C\Cc1cc(O)ccc1O)CCc1c(C)cc(O)c(C=O)c1C [PANICEIN B3],inactive: 29.6 µM
19,C/C(=C\Cc1cc(O)ccc1O)CCc1c(C)c(O)c(O)c(C=O)c1C [PANICEIN C],inactive: 35.6 µM
20,COc1ccc(Cc2nccc3cc(OC)c(OC)cc23)cc1OC [PAPAVERINE HYDROCHLORIDE],inactive: 59 µM
21,COc1ccc(CC(C)N)cc1 (stereo not given) [PARA-METHOXYAMPHETAMINE],inactive: > 100 µM
22,N#Cc1ccc2[nH]c3c(c2c1)CC(=O)Nc1ccccc1-3 [PAULLONE 2],inactive: > 100 µM
23,Nc1nc2[nH]cc(CCc3ccc(C(=O)N[C@@H](CCC(=O)O)C(=O)O)cc3)c2c(=O)[nH]1 [PEMETREXED],inactive: > 100 µM
24,O=C(OC[C@H]1O[C@@H](OC(=O)c2cc(O)c(O)c(O)c2)[C@H](OC(=O)c2cc(O)c(O)c(O)c2)[C@@H](OC(=O)c2cc(O)c(O)c(O)c2)[C@@H]1OC(=O)c1cc(O)c(O)c(O)c1)c1cc(O)c(O)c(O)c1 [PENTAGALLOYL GLUCOSE],inactive: 5.3 µM
25,S=C=NCCc1ccccc1 [PHENETHYLISOTHIOCYANATE],inactive: 1.78 µM

row,SMILES,GI50
1,O=C(O)Cc1ccccc1 [PHENYLACETIC ACID],inactive: > 100 µM
2,COc1cc(O)c2c(c1)C(=O)c1cc(C)cc(O)c1C2=O [PHYSCION],inactive: > 100 µM
3,Oc1cc(O)cc(/C=C/c2ccc(O)c(O)c2)c1 [PICEATANNOL],inactive: 23.6 µM
4,OC[C@H]1O[C@@H](Oc2cc(O)cc(/C=C/c3ccc(O)cc3)c2)[C@H](O)[C@@H](O)[C@@H]1O [PICEID],inactive: > 100 µM
5,O=C1CC[C@@H](C(=O)N2CSC[C@H]2C(=O)O)N1 [PIDOTIMOD] (HELM PEPTIDE1{[Glp].[O=C(O)[C@@H]1CSCN1[*:1]]}$$$$V2.0),inactive: > 100 µM
6,Clc1ccccc1-c1nc(-c2ccncc2)no1 [PIFEXOLE],inactive: > 100 µM
7,CC[C@@H]1C(=O)OC[C@@H]1Cc1cncn1C [PILOCARPINE HYDROCHLORIDE],inactive: > 100 µM
8,O=c1[nH]c2ccccc2n1C1CCN(CCCC(c2ccc(F)cc2)c2ccc(F)cc2)CC1 [PIMOZIDE],inactive: 10.1 µM
9,O=C(O)/C=C/C=C/c1ccc2c(c1)OCO2 [PIPERIC ACID],inactive: > 100 µM
10,O=C(CCBr)N1CCN(C(=O)CCBr)CC1 [PIPOBROMAN],inactive: 118 µM
11,CNc1c2c(c3nc4ccccc4c4c3c1N=C4)NCCC2=O [PLAKINIDINE A],inactive: 4.06 µM
12,COc1cc([C@@H]2c3cc4c(cc3[C@H](O)[C@H]3COC(=O)[C@H]23)OCO4)cc(OC)c1OC [PODOFILOX],active: < 0.005 µM
13,CC1(C)CCC[C@]2(C)[C@@H](C=O)C(C=O)=CC[C@@H]12 [POLYGODIAL],inactive: 50.9 µM
14,CC(=O)Oc1c2oc3cc(O)c(O)cc3c2c(OC(C)=O)c2oc3cc(O)c(O)cc3c12 [POLYOZELLIN],inactive: 58.5 µM
15,CO[C@@]12[C@H](COC(N)=O)C3=C(C(=O)C(C)=C(N)C3=O)N1C[C@H]1[C@@H]2N1C (stereo not given in full) [PORFIROMYCIN],inactive: 4.41 µM
16,C=C(C)[C@@H]1CCC2=C(CC[C@]3(C)[C@@H]([C@@H](CCC=C(C)C)C(=O)O)[C@H](O)C[C@@]23C)[C@@]1(C)CCC(=O)O [PORICOIC ACID G],inactive: > 100 µM
17,O=C([O-])C(O)C(O)C(=O)O.[K+] (stereo not given) [POTASSIUM HYDROGENTARTRATE],inactive: > 100 µM
18,COc1cc2nc(N3CCN(C(=O)c4ccco4)CC3)nc(N)c2cc1OC [PRAZOSIN HYDROCHLORIDE],inactive: 18.4 µM
19,OC(CCN1CCCCC1)(c1ccccc1)c1ccccc1 [PRIDINOL],inactive: > 100 µM
20,Nc1ccc2cc3ccc(N)cc3nc2c1 [PROFLAVINE SULFATE],inactive: 1.35 µM and inactive: 1.8 µM
21,CC(CN1c2ccccc2Sc2ccccc21)N(C)C (stereo not given) [PROMETHAZINE HYDROCHLORIDE],inactive: 20.5 µM
22,O=C(NCCSSCCNC(=O)/C(Cc1ccc(O)c(Br)c1)=N/O)/C(Cc1ccc(O)c(Br)c1)=N/O [PSAMMAPLIN A],inactive: 1.59 µM
23,O=C1c2ccccc2C(=O)c2c(O)c(O)cc(O)c21 [PURPURIN],inactive: 43.6 µM
24,NCCCCN [PUTRESCINE HYDROCHLORIDE],inactive: > 100 µM
25,COc1ccc2c(c1)-c1nn(CCCN(C)C)c3ccc([N+](=O)[O-])c(c13)N2 [PYRAZOLOACRIDINE],active: 0.277 µM

row,SMILES,GI50
1,CN(C)C(=O)Oc1ccc[n+](C)c1 [PYRIDOSTIGMINE BROMIDE],inactive: > 100 µM
2,CCc1nc(N)nc(N)c1-c1ccc(Cl)cc1 [PYRIMETHAMINE],inactive: > 100 µM
3,[O-][n+]1ccccc1S [PYRITHIONE ZINC],inactive: 2.94 µM
4,O=c1c(O)c(-c2ccc(O)c(O)c2)oc2cc(O)cc(O)c12 [QUERCETIN],inactive: 30.5 µM
5,O=C1c2ccc(O)c(O)c2C(=O)c2c(O)ccc(O)c21 [QUINALIZARIN],inactive: 24.9 µM
6,O=C1c2ccccc2C(=O)c2c(O)ccc(O)c21 [QUINIZARIN],inactive: > 100 µM
7,Cc1nc(=O)c2cc(CN(C)c3ccc(C(=O)N[C@@H](CCC(=O)O)C(=O)O)s3)ccc2[nH]1 [RALTITREXED],inactive: > 100 µM
8,O=c1ccc2[n+]([O-])c3ccc(O)cc3oc-2c1 [RESAZURIN],inactive: 22.9 µM
9,COC(=O)[C@H]1[C@H]2C[C@@H]3c4[nH]c5cc(OC)ccc5c4CCN3C[C@H]2C[C@@H](OC(=O)c2cc(OC)c(OC)c(OC)c2)[C@@H]1OC [RESERPINE],inactive: 22.2 µM
10,CC1=C(/C=C/C(C)=C/C=C/C(C)=C/CO)C(C)(C)CCC1 [RETINOL],inactive: 27.1 µM
11,O=C1CSC(=S)N1 [RHODANINE],inactive: > 100 µM
12,C[C@@H]1O[C@@H](O[C@H]2[C@H](Oc3cc(O)c4c(=O)cc(-c5ccc(O)cc5)oc4c3)O[C@H](CO)[C@@H](O)[C@@H]2O)[C@H](O)[C@H](O)[C@H]1O [RHOIFOLIN],inactive: > 100 µM
13,O=C(/C=C/c1ccc(Oc2cc(C(=O)/C=C/c3ccc(O)cc3)c(O)cc2O)cc1)c1ccc(O)cc1O [RHUSCHALCONE II],inactive: 7.28 µM
14,O=C(/C=C/c1ccc(O)c(-c2cc(C(=O)/C=C/c3ccc(O)cc3)c(O)cc2O)c1)c1ccc(O)cc1O [RHUSCHALCONE VI],inactive: 19.2 µM
15,C1COC(NC(C2CC2)C2CC2)=N1 [RILMENIDINE],inactive: > 100 µM
16,Oc1ccc(C(O)C2CCCCN2)cc1O (stereo not given) [RIMITEROL HYDROBROMIDE],inactive: > 100 µM
17,COc1ccc([C@@]23Oc4cc(OC)cc(OC)c4[C@]2(O)[C@H](O)[C@H](C(=O)N(C)C)[C@H]3c2ccccc2)cc1 [ROCAGLAMIDE],active: 0.00973 µM
18,CS(=O)(=O)c1ccc(C2=C(c3ccccc3)C(=O)OC2)cc1 [ROFECOXIB],inactive: > 100 µM
19,CCC1(c2ccncc2)CCC(=O)NC1=O (stereo not given) [ROGLETIMIDE],inactive: > 100 µM
20,C=C(C)[C@H]1Cc2c(ccc3c2O[C@@H]2COc4cc(OC)c(OC)cc4[C@@H]2C3=O)O1 [ROTENONE],active: 0.221 µM
21,NS(=O)(=O)c1ccc(/N=N/c2ccc(O)c(C(=O)O)c2)cc1 [SALAZOSULFAMIDE],inactive: > 100 µM
22,CC(C)=CCC/C(C)=C/CC/C(C)=C/CSc1ccccc1C(=O)O [SALIRASIB],inactive: 15.6 µM
23,CN(CC(N)=O)C(=O)N(CCCl)N=O [SARCNU],inactive: > 100 µM
24,Cc1ccccc1/N=N/c1ccc(/N=N/c2c(O)ccc3ccccc23)c(C)c1 [SCARLET RED],inactive: > 100 µM
25,CN1[C@@H]2C[C@@H](OC(=O)[C@H](CO)c3ccccc3)C[C@H]1[C@@H]1O[C@@H]12 [SCOPOLAMINE HYDROBROMIDE],inactive: > 100 µM

# Source: ChEMBL document CHEMBL1201862, “PubChem BioAssay data set” (2004)
